Assay results published in PubChem BioAssay AID1460 (National Center for Advancing Translational Sciences (NCATS), 2008).
Out of some 270,000 compounds screened, about 5,800 (2.1%) were called active. Inconclusive means that the source gave no clear call. Such entries were picked first, then a sample of the others. The call rests on the fitted dose curve; in most records, active means well fitted inhibition curve with a large enough effect; inconclusive means small, poorly fitted or top-dose-only effect; inactive means flat fitted curve, though single readings scatter. A potency beside an inconclusive call is a rough fit, not a confirmed value.

Biological target: Microtubule-associated protein tau (Homo sapiens) (UniProt P10636)
Test: qHTS for Inhibitors of Tau Fibril Formation, Thioflavin T Binding; further: nearly all actives have a fitted effect of over 55% in size
Conditions: recombinant tau K18 P301L (four-repeat tau fragment), heparin-induced fibrillization, ThT fluorescence; series mostly up to 57.4 µM
Summary of the method: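 Recombinant human tau K18 fragment […] carrying P301L, 15 uM unlabeled plus 0.24 uM Alexa 594-labeled, was fibrillized with 20 uM heparin in 100 mM sodium acetate pH 7 for 6 hr at 37 C; 30 uM ThT fluorescence read after 1 hr.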
On the % scale 0 is the no-effect control and ±100 the full control effect; potency means the concentration at half of the fitted maximal effect; tags describe the fitted curve by direction and shape.

Chain of UniProt P10636 (P10636 whole entry, looked up): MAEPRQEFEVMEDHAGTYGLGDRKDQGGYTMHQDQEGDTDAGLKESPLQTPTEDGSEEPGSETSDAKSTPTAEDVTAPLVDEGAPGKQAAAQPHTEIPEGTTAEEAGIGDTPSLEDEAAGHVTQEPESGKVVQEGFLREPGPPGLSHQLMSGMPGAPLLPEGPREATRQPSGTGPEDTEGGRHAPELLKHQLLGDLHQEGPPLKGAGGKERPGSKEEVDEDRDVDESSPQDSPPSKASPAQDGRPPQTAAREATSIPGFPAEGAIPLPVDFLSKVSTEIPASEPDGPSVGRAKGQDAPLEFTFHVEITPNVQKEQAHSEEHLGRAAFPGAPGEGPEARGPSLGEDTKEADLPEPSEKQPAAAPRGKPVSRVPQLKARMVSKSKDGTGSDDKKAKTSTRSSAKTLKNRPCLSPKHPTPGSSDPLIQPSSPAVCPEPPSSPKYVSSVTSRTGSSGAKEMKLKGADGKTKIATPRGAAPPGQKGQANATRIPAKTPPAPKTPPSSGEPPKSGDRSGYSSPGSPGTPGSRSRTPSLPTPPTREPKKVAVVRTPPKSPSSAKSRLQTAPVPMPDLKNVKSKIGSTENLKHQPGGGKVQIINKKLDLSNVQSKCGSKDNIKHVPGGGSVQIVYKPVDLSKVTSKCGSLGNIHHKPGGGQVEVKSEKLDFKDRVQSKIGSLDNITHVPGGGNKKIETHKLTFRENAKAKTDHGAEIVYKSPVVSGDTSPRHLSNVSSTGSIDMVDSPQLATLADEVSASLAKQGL

SMILES | Potency | activity, negative = inhibition
CCOc1ccc(CCNC(=O)CCc2c(C)nc3ncnn3c2C)cc1OCC | inactive | –
CCc1cccc2c1NC(=O)[C@]21[C@@H]2C(=O)N(Cc3ccccc3)C(=O)[C@@H]2[C@@H]2CCCN21 | inconclusive: 15.8 µM [inhibitor, single point] | –
O=C1SC(SC(=Nc2ccccc2)Nc2ccccc2)C(=O)N1c1ccccc1 (stereo unspecified) | inconclusive: 14.1 µM [inhibitor, partial curve] | –
C=CCn1c(SCC(=O)NCc2ccco2)nnc1-c1ccc2ccccc2n1 | inconclusive: 39.8 µM [inhibitor, single point] | –
Cc1ccc(C2CC(=O)N(Cc3ccccc3F)c3c2c(C)nn3-c2nc(C)cc(C)n2)cc1 (stereo unspecified) | inactive | –
COC(=O)c1cc2ccc(OC)c(OC)c2c(=O)s1 | inconclusive: 35.5 µM [inhibitor, single point] | –
O=C(NCCO)c1cccc(Nc2nc(-c3ccccc3)c3cc(Cl)ccc3n2)c1 | inconclusive: 20 µM [inhibitor, single point] | –
CCOC(=O)c1c(C)[nH]c(C=Nc2ccc(OC)cc2)c1O | inconclusive: 17.8 µM [inhibitor, partial curve] | –
CCOc1cc(C2C(C(=O)OC(C)C)=C(C)NC3=C2C(=O)CCC3)cc([N+](=O)[O-])c1O (stereo unspecified) | inconclusive: 22.4 µM [inhibitor, single point] | –
Cc1[nH]c2ccc(-c3nnc(SCC(=O)NCc4ccco4)n3Cc3ccccc3)cc2c1C | inconclusive: 20 µM [inhibitor, partial curve] | –
O=[N+]([O-])c1ccc(N/N=C2\CC3CC=CC23)cc1 (stereo unspecified) | active: 14.1 µM | –
CCOc1ccc(CCNC(=O)CCc2c(C)nc3c(c(C)nn3-c3ccccc3)c2C)cc1OCC | inconclusive: 10 µM [inhibitor, partial curve] | –
COc1cc(C2C3=C(CC(C)(C)CC3=O)OC(N)=C2[N+](=O)[O-])ccc1O (stereo unspecified) | inactive | –
OCc1cn(-c2ccccc2)nc1-c1ccco1 | inconclusive: 0.0355 µM [inhibitor, full curve, poor fit] | –
C/C(Cn1nnc2ccccc21)=N\NC(=O)c1cccc(Br)c1 | inconclusive: 28.2 µM [inhibitor, partial curve, poor fit] | –
COc1ccc(NC(=O)c2ccc(-c3ccc(C)c4ccccc34)o2)cc1 | inconclusive: 0.794 µM [inhibitor, full curve] | –
CCc1nnc(NC(=O)CSc2nnc(-c3cc4ccccc4cc3O)n2CC)s1 | inconclusive: 25.1 µM [inhibitor, single point] | –
O=C(N/N=C/c1ccco1)c1cc(-c2ccc(Cl)s2)[nH]n1 | inconclusive: 0.631 µM [inhibitor, full curve, poor fit] | –
O=C(CCCOc1ccc(Cl)cc1Cl)N1CCN(c2ccccn2)CC1 | inconclusive: 3.55 µM [inhibitor, partial curve] | –
Cc1c(NC(=O)c2cc([N+](=O)[O-])ccc2N2CCOCC2)cccc1-c1nc2ccccc2o1 | inconclusive: 11.2 µM [inhibitor, partial curve, poor fit] | –
Cc1cc(C)n(CCc2nc(-c3ccco3)cs2)n1 | active: 35.5 µM | –

SMILES | Potency | activity, negative = inhibition
Cc1ccc(C)c(NC(=O)CCC(=O)OC(C(=O)c2ccccc2)c2ccccc2)c1 (stereo unspecified) | inconclusive: 39.8 µM [inhibitor, single point] | –
C=CCSc1nc(O)c(C2OC(=O)c3c2ccc(OC)c3OC)c(=O)n1-c1ccccc1 (stereo unspecified) | inconclusive: 25.1 µM [inhibitor, single point] | –
C=C(C)C1CC[C@]2(CO)CC[C@@]3(C)[C@H](CCC4[C@@]5(C)CCC(O)C(C)(C)C5CC[C@@]43C)C12 (stereo partly specified) | inactive | –
O=C(COc1cccnc1[N+](=O)[O-])Nc1ccc(S(=O)(=O)N2CCOCC2)cc1 | inactive | –
O=[N+]([O-])c1ccc(CSc2nnc(-c3cnccn3)o2)cc1 | inconclusive: 3.16 µM [inhibitor, partial curve, poor fit] | –
O=C(Oc1c(-c2ccccc2)c(=O)n2c3c(cccc13)CC2)c1ccc(Cl)cc1 | inconclusive: 25.1 µM [inhibitor, partial curve, poor fit] | –
CC(C)CC(COCc1ccc(C(F)(F)F)cc1)N1CCN(C(=O)c2ccc(C(F)(F)F)cc2)CCC1=O (stereo unspecified) | inconclusive: 39.8 µM [inhibitor, single point] | –
O=C(CSc1nc2ccsc2c(=O)n1Cc1ccccc1)NCC1CCCO1 (stereo unspecified) | inactive | –
CC(=O)Nc1ccc(N=C(C2=C(O)c3ccccc3C2=O)c2ccccc2)cc1 | inconclusive: 17.8 µM [inhibitor, partial curve] | –
CCCC(=O)c1ccc(N2CCN(C(=O)OCC)CC2)c(F)c1 | inconclusive: 2 µM [inhibitor, full curve] | –
CC(Sc1nc2ccccc2n1C)C(=O)Nc1ccc(N2CCOCC2)cc1 (stereo unspecified) | inconclusive: 20 µM [inhibitor, partial curve] | –
O=C(c1cc(COc2ccc3ncccc3c2)on1)N1CCCCCC1 | inconclusive: 8.91 µM [inhibitor, partial curve] | –
COc1ccc(C2C=C(c3cccc(OC)c3)Nc3c(C(=O)Nc4ccccc4)cnn32)cc1 (stereo unspecified) | inactive | –
O=C1c2cccnc2C(=O)N1Cc1ccccc1 | inactive | –
O=C1OC(C(=O)Nc2ccccc2)Cc2ccccc21 (stereo unspecified) | inactive | –
CN1CCc2c(sc3c2C(=O)NC(c2ccccc2)N3)C1 (stereo unspecified) | inconclusive: 28.2 µM [inhibitor, single point] | –
O=C(CCCN1C(=O)/C(=C/c2ccccc2Cl)SC1=S)NNC(=O)c1ccncc1 | inconclusive: 0.0501 µM [inhibitor, full curve, poor fit] | –
CCOC(=O)c1ccc(N2C(=O)CC(SCC(=O)Nc3ccc(S(N)(=O)=O)cc3)C2=O)cc1 (stereo unspecified) | inconclusive: 14.1 µM [inhibitor, partial curve] | –
CCCS(=O)(=O)Nc1c(C(=O)O)[nH]c2ccccc12 | inconclusive: 12.6 µM [inhibitor, single point] | –
C[C@H](NC(=O)N1CCc2nc(-c3ccccc3)c3c(c2C1)CO[C@@H](C)C3)c1ccccc1 | – | inactive: -3.9% [at 11.5 µM]
